For 19 molecules, AC50 results are on record in PubChem BioAssay (NCATS).

A word on the AC50: it is the midpoint of the concentration-response curve, whichever way the signal moves. Read a low AC50 as activity at low concentration.

The nature of the assay: Cell-based coincidence reporter assay to measure PMP22 gene transcription in S16 Pmp22-F2sN cells - Confirmatory screen (AID 1508646). The note with it: S16 Schwann cells Pmp22-F2sN, dual luciferase, 24 h. An outline of the steps: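 S16 Schwann cells carrying a bioluminescent reporter in the Pmp22 3' UTR (Pmp22-F2sN) were treated with compounds for 24 h at 37C, then lysed; FLuc and then NLuc luminescence were read sequentially with a dual-luciferase kit on a CCD imager.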
(Reporter assays use an easily measured gene product as a stand-in for the process of interest.)

Setting [1] is: measured here: FLuc reporter channel.
The mark [2] stands for this setting: measured here: NLuc reporter channel.

The list shows a part of the results. The main result of the screen is listed elsewhere. These columns were measured beside it and carry no call. Compounds called inactive in the main read-out are mostly missing here. The note in brackets gives the kind of curve behind each potency; many fits are weak.
Tags give direction and shape of the fitted curve.

Consider `CCOC(=O)c1c(C)[nH]c(CCC(=O)NCCCN2CCN(c3cc(Cl)ccc3C)CC2)c1C`, for which the AC50 is 19.3 µM [falling, partial curve] under setting [1] and 24.3 µM [falling, partial curve] under setting [2].
Take `COc1ccc(Br)c2c1-c1nc(NC(=O)c3cccc(C)c3)sc1C2`: the AC50 reads like this: under setting [1], 3.43 µM [falling, full curve]; under setting [2], 4.32 µM [falling, partial curve, poor fit].
As to `Cc1cccc(Nc2c3c(nc4nncn24)CCC3)c1C`, the concentration at half-maximal activity (AC50) under setting [1] is 0.485 µM [falling, full curve] and the AC50 under setting [2] was 0.243 µM [falling, full curve].
As for `Cc1cc(C)c(NC(=O)Cn2c(=O)n(Cc3ccc(C(=O)NCc4ccc5c(c4)OCO5)cc3)c(=O)c3ccccc32)c(C)c1`, the concentration at half-maximal activity (AC50) reads like this: under setting [1], 6.85 µM [falling, full curve]; under setting [2], 10.9 µM [falling, partial curve].
Take `CCc1ccc(-n2c(SCc3cccc(F)c3)nc3[nH]ncc3c2=O)cc1`: the AC50 runs as follows: under setting [1], 38.5 µM [falling, partial curve, poor fit]; under setting [2], 43.2 µM [falling, single point].
With `CCCC(=O)Nc1nnc(SCc2cc(=O)c3ccc(C)cc3[nH]2)s1`, the half-maximal activity concentration (AC50) is, setting by setting: under setting [1], 2.43 µM [falling, partial curve, poor fit]; under setting [2], 9.68 µM [falling, full curve, poor fit].
For the molecule `CCOc1ccccc1C(=O)Nc1c(C(=O)Nc2ccc(F)cc2)oc2ccccc12`, the AC50 runs as follows: under setting [1], 6.85 µM [falling, partial curve]; under setting [2], 4.32 µM [falling, partial curve].
On to `CCN1CCOC(=O)C1CC(=O)Nc1cc(Cl)ccc1C` (stereo not drawn), for which the AC50 by setting is: under setting [1], 21.7 µM [falling, partial curve]; under setting [2], 24.3 µM [falling, partial curve].
With `O=C(Nc1ccccc1C(F)(F)F)N1CCN(c2ccc3nnc(-c4ccc(F)cc4)n3n2)CC1`, the AC50 runs as follows: under setting [1], 5.44 µM [falling, full curve, poor fit]; under setting [2], 6.11 µM [falling, full curve, poor fit].
Take `CCOC(=O)c1ccc(N2C(=O)c3[nH]nc(-c4ccc(C)cc4)c3C2c2ccc(O)c(OCC)c2)cc1` (stereo not drawn): the concentration at half-maximal activity (AC50) is, setting by setting: under setting [1], 12.2 µM [falling, partial curve]; under setting [2], 21.7 µM [falling, partial curve].
Consider `COCCCn1c(=N)c(C(=O)NC2CCCC2)cc2c(=O)n3cccc(C)c3nc21`, for which the AC50 is 17.2 µM [falling, partial curve] under setting [1] and 21.7 µM [falling, partial curve] under setting [2].
Regarding `COCCCNC(=O)c1ccc(-n2c(-c3ccccc3)cc3c2CCC(C)C3)cc1` (stereo not drawn), the AC50 is, setting by setting: under setting [1], 4.85 µM [falling, full curve]; under setting [2], 0.544 µM [falling, full curve].
On to `CCOc1ccc(NC(=O)CSc2oc(-c3ccc(F)cc3)nc2S(=O)(=O)c2ccc(C)cc2)cc1`, for which the half-maximal activity concentration (AC50) reads like this: under setting [1], 13.7 µM [falling, full curve]; under setting [2], 15.3 µM [falling, full curve].
`CCOC(=O)c1c(C)[nH]c(CCC(=O)NCCCN2CCN(c3cccc(Cl)c3)CC2)c1C`: the AC50 under setting [1] is 27.3 µM [falling, partial curve] and the half-maximal activity concentration (AC50) under setting [2] is 34.3 µM [falling, partial curve].
In the case of `CCS(=O)(=O)c1ncc(Cl)c(C(=O)Nc2c(C(=O)c3ccc(C)cc3)oc3ccccc23)n1`, the AC50 was 7.69 µM [falling, full curve] under setting [1] and 10.9 µM [falling, full curve] under setting [2].
As for `COc1ccc(CCNC(=O)c2cc(=O)c3c(C)cc(C)cc3o2)cc1OC`, the half-maximal activity concentration (AC50) was 15.3 µM [falling, partial curve, poor fit] under setting [1] and 6.85 µM [falling, full curve] under setting [2].
For the molecule `CCN(CC)CCOC(=O)c1ccc(NC(=O)Cn2ncc3c([nH]c4ccc(C)cc43)c2=O)cc1`, the AC50 is 12.2 µM [falling, full curve] under setting [1] and 13.7 µM [falling, full curve] under setting [2].
Regarding `Cc1oc(-c2cccc(Cl)c2)nc1CN1CCC(C(=O)NCCCN2CCN(c3cccc(Cl)c3)CC2)CC1`, the AC50 is 21.7 µM [falling, partial curve] under setting [1] and 24.3 µM [falling, partial curve] under setting [2].
Turning to `Cn1c(=O)oc2cc(S(=O)(=O)N3CCCC(C(=O)N4CCN(c5cccc(Cl)c5)CC4)C3)ccc21` (stereo not drawn), the AC50 was 17.2 µM [falling, partial curve] under setting [1] and 17.2 µM [falling, partial curve] under setting [2].
